# Whole data set: some 33,000 sequences, median “E-score (-0.5 to 0.5)” near -0.012, cut for the highest 2% near 0.29. The list shows a part of the results.
# Target: T1, Ybr033w (UniProt P38073)
# T1 sequence: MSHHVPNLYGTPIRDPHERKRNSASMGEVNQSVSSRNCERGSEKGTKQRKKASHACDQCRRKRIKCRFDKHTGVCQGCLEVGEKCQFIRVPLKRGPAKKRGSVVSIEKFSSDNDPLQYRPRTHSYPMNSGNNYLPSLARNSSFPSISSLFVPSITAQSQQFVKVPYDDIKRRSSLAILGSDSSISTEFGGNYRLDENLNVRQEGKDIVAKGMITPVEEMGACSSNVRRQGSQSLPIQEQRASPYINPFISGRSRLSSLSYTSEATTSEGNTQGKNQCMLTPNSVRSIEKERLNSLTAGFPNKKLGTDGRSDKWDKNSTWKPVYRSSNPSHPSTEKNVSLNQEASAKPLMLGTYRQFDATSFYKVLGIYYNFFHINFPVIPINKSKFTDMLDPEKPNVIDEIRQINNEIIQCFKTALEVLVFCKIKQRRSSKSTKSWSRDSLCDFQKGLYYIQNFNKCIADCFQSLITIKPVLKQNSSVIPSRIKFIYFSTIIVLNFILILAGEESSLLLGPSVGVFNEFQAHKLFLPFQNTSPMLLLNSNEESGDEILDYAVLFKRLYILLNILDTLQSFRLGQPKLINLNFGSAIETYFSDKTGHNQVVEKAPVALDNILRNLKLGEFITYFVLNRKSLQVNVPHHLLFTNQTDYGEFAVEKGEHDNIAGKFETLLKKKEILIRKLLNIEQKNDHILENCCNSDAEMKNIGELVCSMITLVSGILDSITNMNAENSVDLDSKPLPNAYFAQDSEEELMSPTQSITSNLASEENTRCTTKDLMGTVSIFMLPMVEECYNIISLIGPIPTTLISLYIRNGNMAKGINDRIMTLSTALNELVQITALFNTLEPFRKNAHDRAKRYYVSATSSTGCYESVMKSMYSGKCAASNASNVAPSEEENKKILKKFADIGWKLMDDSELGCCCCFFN
# Assay: PBM E-score (8-mer binding enrichment) (E-score (-0.5 to 0.5)); higher = stronger / more preferred TF binding; most listed sequences are background and not binding sites
# Details: protein concentration: 200 nM; construct: GST-full length
# Method in brief: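 Detection of bound protein used fluorescent anti-GST, with scans normalised by masliner. The proteins were GST-tagged yeast transcription factors applied at about 100-200 nM to universal all-10-mer Agilent arrays made double-stranded by primer extension. Each ungapped eight-base word, pooled with its reverse complement, was scored with an E-score from the Universal PBM Analysis Suite.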
row,Sequence,PBM E-score
1,CAACAGGG,-0.0175
2,TAAGAATA,0.0479
3,ATGCGTCG,-0.119
4,ACAGAGTG,0.0548
5,AGAATAAA,0.312
6,AGGGACAT,0.0463
7,GACGGCTA,0.0615
8,GTGCCTAA,-0.0516
9,AATGATAT,0.298
10,GCAATAGC,0.0225
11,CTTCTTCA,0.0645
12,GGTCGACC,0.0932
13,ATCAGTAA,0.242
14,CGCAATGA,0.132
15,CATGCCCG,-0.0453
16,GCAAAATA,0.287
17,CCGTGGTA,-0.024
18,CCAGAAAA,0.089
19,CTAATGAC,-0.179
20,AACGGCCC,-0.3
21,CATCATAA,0.175
22,CCGATAGA,-0.0881
23,CAACAACG,0.00121
24,CCTTTAGA,-0.0803
25,CAGTAAAA,0.187

row,Sequence,PBM E-score
1,ACGGTATC,0.00129
2,ATCGTGAA,-0.0115
3,CGGCAAGC,-0.185
4,CCGCACAG,-0.133
5,ATTCATAA,0.188
6,AGGCAATG,-0.0925
7,CTCGTGCC,-0.244
8,CCCTGGCG,-0.258
9,CTGCTGGA,-0.121
10,CCATGACA,-0.0124
11,CAGTATCG,0.00581
12,ACAAGCCA,-0.0833
13,ACCTATTA,0.145
14,ATAAACTC,0.279
15,CAACTTGG,0.0321
16,AGGGTGAG,-0.184
17,AGAGTACT,-0.0915
18,CGACATTC,0.0043
19,ATATCCTC,0.0836
20,CTATATCC,0.159
21,GACCTTAA,-0.0604
22,AGGGTGAC,-0.117
23,AACTATCT,0.0736
24,AACTGAAT,-0.0881
25,CTCGTCGA,6e-05

row,Sequence,PBM E-score
1,GCCTCCCC,-0.292
2,AAGGGGTC,-0.323
3,GCAGACGC,-0.17
4,GAGGTACA,0.0115
5,CTATTCGC,0.0205
6,GTAATCAA,0.271
7,AGTCCTGC,-0.108
8,CTGAGCAC,-0.0928
9,CCCCCTGC,-0.375
10,AATCAATT,0.247
11,AGCTAGCG,-0.0886
12,ATACGTCC,-0.126
13,AGGCACTA,-0.0554
14,AGGATACC,-0.111
15,AGTTTAGA,0.146
16,ACAGATCC,0.114
17,ACAAGTCG,-0.187
18,AGGTGGAA,0.126
19,CCTATAAG,-0.00305
20,AAACACGT,-0.0842
21,ATTGGCTA,0.117
22,GTAACGTA,0.0344
23,CTTTATCC,0.172
24,CTCGGCAA,-0.167
25,ACCGAAGA,0.217

row,Sequence,PBM E-score
1,CAAGCAAC,0.0914
2,AATTCTAG,0.198
3,GTGACCAA,0.2
4,CTCTGGCC,-0.15
5,ATGATACG,0.116
6,GAAGTCCC,-0.372
7,GACGGGAA,-0.0918
8,AGATTTCG,0.124
9,AGAGTTGA,0.0245
10,CATTTCTA,0.222
11,GAACCCAC,-0.0814
12,ACCGGCCG,-0.247
13,TGTACCAA,0.0592
14,AAAAGAGG,-0.0444
15,CGACGCCG,-0.13
16,GAATTCGC,-0.0455
17,ATGCTCCA,-0.124
18,AAGGACGA,-0.126
19,CAATCTCG,-0.0177
20,GACGTATC,-0.12
21,AGGTATAC,0.147
22,ACCGGGCC,-0.142
23,ACCGACAC,-0.0337
24,GCTTTGAC,0.0363
25,TAGTAGGA,-0.00612

row,Sequence,PBM E-score
1,TCCAACAA,0.0559
2,ACTAACAA,0.0432
3,CCCTACCC,-0.218
4,GACGTGCA,-0.0902
5,AGGCCTCG,-0.308
6,AATATTCG,0.161
7,AGATGACT,-0.0856
8,GCAAACGC,-0.0432
9,CTACGGGC,-0.336
10,TCAAGTGA,-0.0425
11,TGGGAAAA,0.316
12,CAATGCGC,0.0638
13,TCTCAGAA,-0.0826
14,AATATTGA,0.329
15,AAGCATTA,0.0682
16,CTGGGGAA,-0.3
17,AGAACCTC,-0.171
18,TAATTGTA,0.279
19,CCGTAGCG,0.0186
20,ATCATCAC,0.12
21,ACTTCGCA,0.0372
22,ACACCGTA,-0.0776
23,CAGGTAGC,-0.108
24,CCTCATCC,-0.335
25,CTCTCATA,0.0382

row,Sequence,PBM E-score
1,GTTCGGTA,-0.0289
2,TGGCCGAA,-0.0761
3,AACGGATG,-0.0912
4,CGTCTACA,-0.162
5,GTTACATA,0.151
6,ACTTTGTG,0.148
7,ACGCGGGA,-0.00531
8,GCCTGCAC,-0.251
9,CGCCACGA,-0.129
10,ACCAAATA,0.232
11,AGTCGCTC,0.0213
12,ATCTGAAC,0.0865
13,ACTTCTGG,-0.0772
14,CAGCATTC,0.078
15,CATGACAC,0.168
16,CGATGCTA,-0.0636
17,CAGGGTGA,-0.214
18,CGTGCGCA,-0.213
19,CCCTAAGC,-0.123
20,CCAACATA,0.257
21,CAAGTCTG,-0.193
22,ATCGTCCC,0.0512
23,AAGCGTCG,-0.209
24,GTTGCCGA,0.00885
25,GACCGAGA,0.00789

row,Sequence,PBM E-score
1,AACCTCGC,0.00532
2,CCCTCCAG,-0.248
3,TAACTTGA,0.164
4,CGTCTTCC,-0.215
5,GCCATCAA,-0.129
6,CCTACGCA,-0.0463
7,AGCCTACT,-0.0215
8,CTCCATTA,0.0023
9,CGTGCCAG,-0.266
10,AAGGTGAT,0.0131
11,AGGCAGCA,0.0126
12,CCTTAGAC,-0.0534
13,ACCACAAA,0.105
14,CCGACGAC,0.00324
15,AATATAAT,0.236
16,CGGCTCGC,0.0918
17,TTAGCGAA,0.0434
18,CATTGAAG,-0.0671
19,CAGCAAAC,-0.0765
20,GATATGTA,0.22
21,CCCTACTA,-0.101
22,CGATACGA,-0.104
